In all, about 48,000 compounds went through this assay and about 450 (0.94%) were called active. Inconclusive means that the source gave no clear call. Such entries were picked first, then a sample of the others. Calls come from the whole dose curve; as a rule, active = well fitted inhibition curve with a large enough effect; inconclusive = small, poorly fitted or top-dose-only effect; inactive = no such curve, though single readings can be large or run the other way. Where the call is inconclusive, the potency comes from a doubtful curve fit.
Assay: Primary qHTS for Identification of Small Molecule Inhibitors of Huntingtin Promoter Activity; note: nearly all actives have a fitted effect of over 50% in size
Conditions: HEK293 HTT promoter firefly luciferase reporter (activity 0% = vehicle and -100% = no light), 24 h; series mostly up to 57.5 µM
Outline: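 Luminescence was read after Dual-Glo reagent and a 10 min room-temperature incubation. Values were normalized to vehicle (0% activity) and zero RLU (-100% activity). Reporter HEK293 cells had been exposed to compounds (up to 57.5 uM final) for 24 h.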
Potency is the fitted concentration of half-maximal effect; tags give direction and shape of the fitted curve.

Potency, inconclusive:
CCOc1ccc(C(=O)NCC(c2ccc3c(c2)OCO3)N2CCN(c3ccc(F)cc3)CC2)cc1 (configuration not stated) 31.6 µM [inhibitor, partial curve, poor fit]
Cc1ccc(-n2nc3c(N4CCC(C(=O)NCCc5ccccc5C)CC4)nnc(C)c3c2C)cc1 39.8 µM [inhibitor, single point]
CC(C)(C)c1cc(C(C)(C)C)c2oc(=O)c(-c3nc4ccc(C(=O)O)cc4[nH]3)cc2c1 39.8 µM [inhibitor, single point]
CCOC(=O)c1cnc2ccc(C(=O)OC)cc2c1Nc1ccc(N2CCOCC2)cc1 39.8 µM [inhibitor, single point]
CCOc1ccc(CCNC(=O)c2ccc(CS(=O)(=O)c3ccccc3C)o2)cc1OCC 25.1 µM [inhibitor, partial curve, poor fit]
COc1ccc(OCC2c3cc(OC)c(OC)cc3CCN2C(=O)COc2ccc(Cl)cc2Cl)cc1 (configuration not stated) 20 µM [inhibitor, single point]
COc1ccc(Cn2ccc3nc(C)c(C(=O)N4CCN(c5ccccc5OC)CC4)cc3c2=O)cc1 25.1 µM [inhibitor, single point]
CCOC(=O)C1CCN(S(=O)(=O)c2ccc(N3CCCCS3(=O)=O)cc2)CC1 3.16 µM [inhibitor, full curve]
CCn1c(SCc2ccc(F)cc2Cl)nc(=O)c2c(C(=O)OC)cc(C3CC3)nc21 39.8 µM [inhibitor, single point]
CCCn1c(=O)c2sccc2n2c(CCCC(=O)Nc3ccc(Oc4ccccc4)cc3)nnc12 25.1 µM [inhibitor, single point]
O=C(c1ccc2c(c1)CCN2S(=O)(=O)c1ccc(Cl)cc1)N1CCN(c2ccccc2)CC1 31.6 µM [inhibitor, partial curve, poor fit]
CCOc1ccc(CN2C(=O)c3ccccc3Sc3ccc(C(=O)OC)cc32)cc1 39.8 µM [inhibitor, single point]
CCOC(=O)c1[nH]c(C)c(CCC(=O)N2CCN(c3cccc(C)c3C)CC2)c1C 22.4 µM [inhibitor, partial curve, poor fit]
CCOc1ccc(CC(=O)NCCc2csc(-c3ccc(Cl)cc3)n2)cc1 35.5 µM [inhibitor, partial curve, poor fit]
CC1CCCN(S(=O)(=O)c2cc(C(=O)NCc3ccccc3Cl)n(C)c2)C1 (configuration not stated) 39.8 µM [inhibitor, partial curve, poor fit]
Cc1ccc(NC(=O)C(=O)NCC(c2cccnc2)N2CCc3ccccc3C2)cc1 (configuration not stated) 39.8 µM [inhibitor, single point]
C=Cc1ccc(Cn2c(C(=O)O)c(CNCc3ccccc3)c3ccc(OC)cc32)cc1 39.8 µM [inhibitor, single point]
Cc1ccc(NC(=O)CSCc2cnn(-c3ccccc3)c2-n2cccc2)c(Cl)c1 20 µM [inhibitor, single point]
COc1cc(Br)ccc1C1C(C(=O)Nc2ccc(C)cc2C)=C(C)Nc2nnnn21 (configuration not stated) 35.5 µM [inhibitor, single point]
CCc1ccc(-n2nc(C)c3c(C(=O)N4CCN(c5cccc(Cl)c5)CC4)cc(C)nc32)cc1 15.8 µM [inhibitor, partial curve, poor fit]
CCOC(=O)c1ccc(NC(=O)CCc2c(C)nc3c(c(C)nn3C(C)(C)C)c2C)cc1 39.8 µM [inhibitor, single point]
COc1ccccc1CNS(=O)(=O)c1ccc(N2CCCCS2(=O)=O)cc1 12.6 µM [inhibitor, partial curve, poor fit]
CCOc1ccc(CNC(=O)C2=Cc3cc(Br)ccc3OC2)cc1OC 39.8 µM [inhibitor, single point]
COc1cc(Cl)c(NC(=O)CN(C)S(=O)(=O)c2ccc3c(c2)CCCC(=O)N3)c(OC)c1 28.2 µM [inhibitor, partial curve, poor fit]
CN(C)c1ccc(CNS(=O)(=O)c2csc(C(N)=O)c2)cc1 15.8 µM [inhibitor, partial curve, poor fit]
COc1ccc(C)cc1NC(=O)c1cc(S(=O)(=O)NCCC2=CCCCC2)ccc1F 31.6 µM [inhibitor, single point]
Cn1c(=O)c2c(nc(NCc3ccccc3)n2Cc2ccc(Cl)c(Cl)c2)n(C)c1=O 25.1 µM [inhibitor, single point]
COc1cccc(NC(=O)c2oc3ccc(S(=O)(=O)N4CCC5(CC4)OCCO5)cc3c2C)c1 25.1 µM [inhibitor, partial curve]
O=C(CSCc1ccc(F)cc1)N1CCc2c([nH]c3ccccc23)C1c1ccccc1 (configuration not stated) 25.1 µM [inhibitor, single point]
Cc1cccc(N2CCN(C(=O)c3ccc4c(c3)N(Cc3cccc(Cl)c3)C(=O)c3ccccc3S4=O)CC2)c1C (configuration not stated) 17.8 µM [inhibitor, partial curve]
O=C(CC(=O)Nc1ccccc1F)Nc1ccc2nc3n(c(=O)c2c1)CCCCC3 31.6 µM [inhibitor, single point]
CC(C)CCn1c(=O)c2sccc2n2c(CCCC(=O)Nc3ccc(F)c(Cl)c3)nnc12 28.2 µM [inhibitor, single point]
COc1ccc2c3n(c(=NC(=O)c4cccnc4)nc2c1OC)CCN3 5.44 µM [inhibitor, full curve]
CCN(CC)CCNC(=O)c1c(C)[nH]c(C=C2C(=O)Nc3ccc(F)cc32)c1C 70.3 µM [inhibitor, partial curve, poor fit]
CCn1c(C(=O)NCc2ccccc2)cc2sc(Cl)cc21 39.8 µM [inhibitor, single point]
Cc1cccc(-n2ccnc2SCC(=O)Nc2cc(C(F)(F)F)ccc2Cl)c1 39.8 µM [inhibitor, single point]
CCOC(=O)C1=C(CN(C)Cc2ccccc2)NC(=O)NC1c1ccc(OC(C)C)cc1 (configuration not stated) 22.4 µM [inhibitor, single point]
Cc1ccc(CNC(=O)c2ccc(NC(=O)c3nsc4ccccc34)cc2)cc1 39.8 µM [inhibitor, single point]
COC(=O)c1c(SC)nc2ccccc2c1OCc1cc(C)ccc1C 25.1 µM [inhibitor, single point]
CCCOc1ccc(CNC(=O)c2cc3oc4ccccc4c3n2C)cc1 25.1 µM [inhibitor, single point]
O=C(CSc1nc(-c2cccs2)cc(C(F)(F)F)n1)Nc1ccccc1Cl 22.4 µM [inhibitor, partial curve]
CCOc1ccccc1NC(=O)C(=O)NCC(c1cccnc1)N1CCN(c2ccccc2)CC1 (configuration not stated) 39.8 µM [inhibitor, single point]
CCCN(C(=O)Cn1nc(Cc2cccnc2)c2ccccc2c1=O)c1ccc(C(C)C)cc1 28.2 µM [inhibitor, single point]
CC1=C(C(=O)OC2CCCCCC2)C(c2c(Cl)cccc2Cl)CC(=O)N1 (configuration not stated) 31.6 µM [inhibitor, single point]
Cc1ccc(Cl)cc1N1CCN(C(=O)C2CCN(S(=O)(=O)c3c(C)noc3/C=C/c3ccccc3F)CC2)CC1 22.4 µM [inhibitor, partial curve, poor fit]
Cc1ccc(C)c(N2CCN(CCCNC(=O)c3ccc4nc(C(C)C)oc4c3)CC2)c1 15.8 µM [inhibitor, partial curve, poor fit]

Potency, inactive:
CCc1ccccc1Nc1ncnc2c1cnn2-c1ccc(Cl)cc1
N#CC1(c2ccc(F)cc2)CCC(=O)CC1
CC(=O)Nc1ccc(S(=O)(=O)NCc2cccn2Cc2cccc(C)c2)cc1
CN(Cc1ccccc1)C(=O)c1cccc(NC(=O)c2nsc3ccccc23)c1
CCOc1cc(C(=O)OCc2cc(=O)n3nc(C4CC4)sc3n2)cc(OCC)c1OCC
COc1cc(OC)c(NC(=O)NCc2cccn2Cc2ccccc2)cc1Cl
Cc1ccc(C(=O)N(CCCN)[C@@H](c2nc3cc(Cl)ccc3c(=O)n2Cc2ccccc2)C(C)C)cc1
Cc1cc(C)cc(-n2ccnc(NCc3ccc(F)cc3)c2=O)c1
Cc1ccccc1NC(=O)CSc1nc2ccc(NC(=O)c3ccco3)cc2s1
O=C(COc1ccc(F)cc1)OCc1cc(=O)n2nc(C3CC3)sc2n1
CCc1ccc(NC(=O)c2cc(CN3CCOCC3)on2)cc1
CCCCC(=O)Nc1cccc(-c2nc3ccccc3s2)c1
CCCCN(C)CC(O)Cn1cc(/C=C/C(=O)c2ccc(OCC)cc2)c2ccccc21 (configuration not stated)
CCN(CC)CCOCCOC(=O)C1(c2ccccc2)CCCC1
CCc1ccccc1NC(=O)Cn1c(=O)oc2ccccc21
O=C(c1ccco1)N1CCNCC1
